Reference: paper PMC12398221
Results are given in words; binding and its absence hold for the method and conditions named. In cells and extracts the contact can be indirect. Some results given as binding are weak or reduced against the parent protein; the word gives no strength.

The chains behind the UniProt entries cited, without tags or fusion partners. Where a name states a change or a piece, a line headed by the entry shows the natural chain unless it says otherwise.
UniProt Q99720: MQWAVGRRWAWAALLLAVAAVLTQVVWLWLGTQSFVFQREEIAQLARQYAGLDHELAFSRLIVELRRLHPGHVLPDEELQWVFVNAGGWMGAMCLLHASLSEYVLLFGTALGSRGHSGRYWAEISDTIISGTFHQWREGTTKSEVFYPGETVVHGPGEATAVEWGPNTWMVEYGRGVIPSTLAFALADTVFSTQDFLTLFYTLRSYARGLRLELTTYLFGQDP
UniProt O95166: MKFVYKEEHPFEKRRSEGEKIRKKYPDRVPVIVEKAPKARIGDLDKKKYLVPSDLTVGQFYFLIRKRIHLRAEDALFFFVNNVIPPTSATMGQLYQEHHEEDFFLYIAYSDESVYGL

Assays:
[1] = molecular target: endogenous sigma-1 receptor (σ1R) (human (endogenous in HeLa)) (UniProt Q99720); experiment: proximity ligation; Duolink PLA in fixed untransfected HeLa cells with rabbit anti-σ1R and mouse anti-GABARAP; cells treated with alazocine (2.5 μM, 2 h)
[2] = molecular target: Myc-FLAG-tagged wild type sigma-1 receptor (σ1R) (human) (UniProt Q99720); experiment: co-IP; as a2 but cells under basal conditions (untreated); PRE-084 (10 μM, 2 h) gave no increase
[3] = molecular target: endogenous sigma-1 receptor (σ1R) (human (endogenous in HeLa)) (UniProt Q99720); experiment: proximity ligation; Duolink PLA in fixed untransfected HeLa cells with rabbit anti-σ1R and mouse anti-GABARAP; DMSO control
[4] = molecular target: Myc-FLAG-tagged σ1R V84L (human) (UniProt Q99720); experiment: co-IP; anti-FLAG M2 magnetic beads, 500 μg lysate of HeLa cells transfected with Myc-FLAG σ1R, 4 °C 60 min, 50 mM Tris pH 7.4, 150 mM NaCl, 0.5% IGEPAL CA-630; cells treated 2 h with blarcamesine (10 μM), alazocine (2.5 μM), H2O2 (50 μM) or bafilomycin A1 (2 μM); immunoblot
[5] = molecular target: Myc-FLAG-tagged wild type sigma-1 receptor (σ1R) (human) (UniProt Q99720); experiment: as above
[6] = molecular target: Myc-FLAG-tagged σ1R F83L (human) (UniProt Q99720); experiment: as above

binding [1]: binds | binding [2]: binds weakly | binding [3]: binds weakly | binding [4]: no binding | binding [5]: binds | binding [6]: no binding
Substance: endogenous GABARAP (from UniProt O95166 1-117)
